Experimental data as given in a collection of fitness landscapes (doi:10.1016/j.celrep.2020.107928).
In all, about 81,000 sequences were measured (“one-hybrid fitness for binding NBS DNA”: median about -0.1, highest 2% from about 0.36 on). The list shows a part of the results.

B1: Caulobacter ParB omega fusion; a variant is named by its letters at X, in order, B8GW30 (parent)
chain: MESVVVGEPGMSEGRRGLGRGLSALLGEVDAAPAQAPGEQLGGSREAPIEILQRNPDQPRRTFREEDLEDLSNSIREKGVLQPILVRPSPDTAGEYQIVAGERAWRAAQRAGLKTVPIMVRELDDLAVLEIGIIENVQRADLNVLEEALSYKVLMEKFERTQENIAQTIGKSXSHVANXMRLLXLPDEVQSYLVSGELTAXHARAIAAAADPVALAKQIIEGGLSVRETEALARKAPNLSAGKSKGGRPPRVKDTDTQALESDLSSVLGLDVSIDHRGSTGTLTITYATLEQLDDLCNRLTRGI

Variants of: B1
Experiment: one-hybrid fitness for binding NBS DNA (the Noc-binding site; scaled: cognate 1, non-cognate 0); higher = stronger binding
Conditions: with NBS DNA site
Summary of the method: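 The reporter was HIS3, with the binding site 19 bp from the promoter, in E. coli USO used for bacterial one-hybrid selection of Caulobacter ParB libraries with four specificity codons randomised. Growth was on M9 lacking histidine, with 0.1 mM IPTG and 5 mM 3-AT, for 48 hours at 37°C. Illumina sequencing covered plasmids before and after selection; three replicate libraries were pooled and variants with under 10 reads dropped. A fitness score is the log change in variant-to-wild-type read ratio, rescaled to the cognate and non-cognate references.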

one-hybrid fitness for binding NBS DNA, 0.305:
TQKR

one-hybrid fitness for binding NBS DNA, 0.398:
QSKV

one-hybrid fitness for binding NBS DNA, 0.25:
QRAD

one-hybrid fitness for binding NBS DNA, 0.206:
QKLA

one-hybrid fitness for binding NBS DNA, 0.229:
RRIV

one-hybrid fitness for binding NBS DNA, ≤ 0.2:
MISF
SCPG
TTNP
NMPC
SLPR
HRSV
HYEC
TKEQ
LMQP
HFNT
SFCH
YCRG
SYMA
KINK
ESER
FGMC
GRQA
HQVG
SMPY
SRPA
ISKM
VYNW
EQRS
EHKT
SCVM
KESL
CSSV
ATSA
VGRL
KACR
DGSE
DGPT
ERET
YTRY
TYLM
DRQG
FLEF
WSDS
DSTG
LNDG
KSRC
DTHL
RPPH
ARPS
LAKN
CKPG
QHLG
YTWT
DHTS
TAFV
RWWA
ITVT
LSKW
QMLG
NASK
PEDR
NNSA
YRAK
PQVK
FMHR
RQAM
RWPN
QVYA
QIVG
GVAF
WLDS
MVMG
PIVY
CPAG
PFET
PLDM
LDYD
PHYR
TMKA
LALG
KCCG
NYVV
SATK
LRTF
EDCE
THSL
MLGY
RPLH
ARNE
KHRY
LEGR
DATH
GLPA
KRRW
RADY
EDRM
WSLP
AGDR
ARWY
DPRF
AWHI
QTIW
RTEF
EHKG
SFYN
QECS
YDGP
PKIR
YVPF
QNGS
YDTE
QVWD
IRNH
VTAC
AGAD
QNSD
HRDK
WLQA
HPRV
RVIW
ETAG
DAPW
VGSE
IAHS
DANL
HLRW
PKCR
RFSE
IWPS
LRHC
NIVT
NSSR
NHMC
VRSV
HHYT
NGCG
RMMH
GGNR
VVSI
YGNS
RWQA
CTTD
TEHA
SPKL
VQRS
ARLA
YRAR
RFHD
QKPK

one-hybrid fitness for binding NBS DNA, 0.243:
RTKI

one-hybrid fitness for binding NBS DNA, 0.279:
QSKW

one-hybrid fitness for binding NBS DNA, 0.222:
RKRK

one-hybrid fitness for binding NBS DNA, 0.684:
RRYA
